# Out of some 310,000 compounds screened, about 2,200 (0.71%) showed an effect of 50% or more. The effect is printed as a negative number. The list shows a part of the results.
# Target: human ether-à-go-go-related gene (hERG) potassium channel (human, UniProt Q12809)
# Assay: primary screen, population patch clamp on CHO cells stably expressing hERG
# Chain of human ether-à-go-go-related gene (hERG) potassium channel (Q12809 whole entry, looked up): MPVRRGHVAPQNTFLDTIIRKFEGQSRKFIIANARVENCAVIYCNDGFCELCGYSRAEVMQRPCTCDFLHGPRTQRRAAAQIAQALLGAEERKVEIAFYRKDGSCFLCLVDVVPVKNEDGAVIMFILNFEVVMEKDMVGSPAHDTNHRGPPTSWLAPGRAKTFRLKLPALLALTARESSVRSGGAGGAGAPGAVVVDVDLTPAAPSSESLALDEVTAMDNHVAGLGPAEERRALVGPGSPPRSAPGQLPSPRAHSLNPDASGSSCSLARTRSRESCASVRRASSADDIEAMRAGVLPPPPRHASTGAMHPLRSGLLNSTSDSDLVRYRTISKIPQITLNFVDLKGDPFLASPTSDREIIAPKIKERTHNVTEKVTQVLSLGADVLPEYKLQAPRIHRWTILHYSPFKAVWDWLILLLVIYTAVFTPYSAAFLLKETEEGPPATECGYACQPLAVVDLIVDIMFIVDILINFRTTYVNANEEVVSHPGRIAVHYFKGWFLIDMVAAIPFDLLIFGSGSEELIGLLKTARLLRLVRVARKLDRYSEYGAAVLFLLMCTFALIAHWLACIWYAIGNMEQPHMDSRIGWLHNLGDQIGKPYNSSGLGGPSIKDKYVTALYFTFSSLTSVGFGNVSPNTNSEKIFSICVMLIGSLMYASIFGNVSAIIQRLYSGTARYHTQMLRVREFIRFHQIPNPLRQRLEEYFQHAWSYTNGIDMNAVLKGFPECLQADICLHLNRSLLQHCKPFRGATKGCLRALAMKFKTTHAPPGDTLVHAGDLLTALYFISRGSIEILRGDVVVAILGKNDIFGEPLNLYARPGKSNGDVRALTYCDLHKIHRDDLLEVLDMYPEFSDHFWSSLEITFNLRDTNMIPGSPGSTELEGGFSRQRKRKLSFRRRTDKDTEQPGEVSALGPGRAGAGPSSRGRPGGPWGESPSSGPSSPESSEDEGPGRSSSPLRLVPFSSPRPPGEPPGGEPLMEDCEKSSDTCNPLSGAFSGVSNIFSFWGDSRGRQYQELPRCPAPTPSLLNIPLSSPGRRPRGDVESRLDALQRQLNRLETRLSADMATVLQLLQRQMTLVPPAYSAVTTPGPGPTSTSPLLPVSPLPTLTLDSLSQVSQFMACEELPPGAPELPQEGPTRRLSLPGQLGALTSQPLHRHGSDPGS
row,Compound,"hERG current change (%, negative = inhibition) at 1uM [%]"
1,Cc1cc(S(=O)(=O)N(Cc2ccccn2)Cc2ccco2)ccc1-n1cnnn1,2.5
2,COc1ccc(C)cc1NC(=O)CN1CCN(S(=O)(=O)c2ccc(Br)cc2)CC1,5.24
3,CC1CC(C)CN(c2ncnc3c2cnn3Cc2ccc(Cl)cc2)C1 (stereo not drawn),-4.81
4,C=CCC(O)(CC=C)CNC(=O)c1ccc(OC)c(OC2CCN(C(C)=O)CC2)c1,14.7
5,COc1ccccc1C(=O)NC(=O)CSc1nc2nc(C)cc(C)n2n1,11
6,COc1ccc(N(CC(=O)NCCC2=CCCCC2)S(=O)(=O)c2ccccc2)cc1,13
7,CC(=O)N1CCN(S(=O)(=O)c2cccc(C(=O)OCN3C(=O)c4ccccc4C3=O)c2)CC1,6.18
8,C[C@@H](C(=O)N[C@@H](Cc1ccccc1)C(=O)O)n1nnc2ccccc2c1=O,9.59
9,COc1ccc([C@H](NC(=O)OC(C)(C)C)C(=O)OC(C)(C)C)cc1,12.2
10,CCOc1ccc(-n2nnc3c(=O)n(CC(=O)Nc4cc(C)on4)cnc32)cc1,7
11,Cc1ccc(S(=O)(=O)N(CC(=O)NCC2CCCO2)Cc2ccc(F)cc2)cc1 (stereo not drawn),10.3
12,O=C(N/C(=C\c1cccc([N+](=O)[O-])c1)C(=O)N1CCOCC1)c1ccco1,8.62
13,Cc1c(C)n(C)c2ccc(C(=O)N3CCN(c4ccccc4)CC3)cc12,8.98
14,CCOC(=O)c1ccc(NC(=O)CSc2nnc(Cc3cccs3)n2C)cc1,10.6
15,Cc1cc(Br)ccc1NC(=O)CN1C(=O)CCC1=O,12.7
16,CCn1ccnc1CN(C)Cc1cn(-c2ccc(C)cc2)nc1-c1cccc(C)c1,10.3
17,COc1cccc(Oc2coc3cc(OC(=O)N4CCOCC4)ccc3c2=O)c1,4.02
18,CC(=O)c1cccc(OCC(=O)Nc2cc(Cl)ccc2-n2cncn2)c1,0.225
19,CCc1ccc(C(=O)NNC(=O)c2ccc(OCC(=O)N3CCOCC3)c(OC)c2)cc1,16.7
20,COc1ccc(C(=O)Nc2nc(-c3ccc([N+](=O)[O-])cc3)c(-c3ccc(OC)cc3)s2)cc1,16.8
21,Cc1c(C(=O)N2CCCCCC2)nnn1-c1nonc1N,8.3

row,Compound,"hERG current change (%, negative = inhibition) at 1uM [%]"
1,Oc1ccccc1-c1nc2cnccn2c1Nc1ccc2c(c1)OCCO2,4.77
2,COc1cccc2cc(-c3ccccc3)c(=O)oc12,4.4
3,CCc1cc2c(=O)c(-c3nc4ccccc4n3C)c(C)oc2c(CN2CCOCC2)c1O,12.2
4,NS(=O)(=O)c1ccc(CCNC(=O)c2ccccc2[N+](=O)[O-])cc1,17.6
5,O=C(CC1NC(=O)NC1=O)Nc1cccc2ccccc12 (stereo not drawn),-12.6
6,Cc1ccc(NC(=O)Nc2nnc(Cc3ccc([N+](=O)[O-])cc3)s2)cc1C,16.5
7,CC(C)(C)OC(=O)C(C)(C)O/N=C(\C(=O)O)c1csc(N)n1,20.7
8,O=C(COc1ccccc1)Nc1ccccc1N1CCN(c2ccc(F)cc2)CC1,16.9
9,Cc1cc(C(=O)N2CCN(c3ccccc3)CC2)c(C)o1,7.91
10,CN(c1ccc(OCC(=O)N2CCN(C/C=C/c3ccccc3)CC2)cc1)S(=O)(=O)c1cccs1.Cl,9.94
11,CN(C)C=Nc1ncc2c3ccccc3n(Cc3ccccc3)c2c1C#N,9.29
12,CC(C)CC(=O)NC(=S)Nc1cccc(NC(=O)c2ccccc2)c1,-11.4
13,CCOC(=O)CSc1nnc(CNC(=O)Cc2ccccc2)n1C,3.36
14,COCCn1c(=NC(=O)/C=C/c2cccs2)sc2cc(NC(C)=O)ccc21,6.09
15,CC1CC(C)CN(S(=O)(=O)c2ccc3c(c2)C(C)(C)C(=O)N3C)C1 (stereo not drawn),-2.13
16,COC(=O)/C=C1\SC(=NC(=O)c2ccc(C)cc2)NC1=O,22.1
17,CCOC(=O)c1c(C)oc(NC(=O)COc2ccc(Cl)cc2C)c1C#N,12
18,O=C(CCc1ccccc1)N1N=C(c2ccncc2)CC1(O)C(F)(F)F (stereo not drawn),11.5
19,COc1cc(CNc2ccc3[nH]c(=O)[nH]c3c2)ccc1OCc1ccc(Cl)cc1,23.2
20,COc1cccc(NC(=O)c2cccc(Cl)c2)c1,-1.32
21,COc1ccc(CNC(=O)CN2C(=O)CSc3ccc(S(=O)(=O)N4CCCCC4)cc32)cc1,-5.63
